ETS1 binding intensity data for 63 sequences are collected here from the supplement of paper PMC10681739.

± gives the standard deviation of the averaged measurements. In all, about 4,100 sequences were measured (“arbitrary fluorescence units”: median about 780, highest 2% from about 22,000 on). This is one part of the list.

The test deals with T1, ETS1 (UniProt P14921).
T1 sequence: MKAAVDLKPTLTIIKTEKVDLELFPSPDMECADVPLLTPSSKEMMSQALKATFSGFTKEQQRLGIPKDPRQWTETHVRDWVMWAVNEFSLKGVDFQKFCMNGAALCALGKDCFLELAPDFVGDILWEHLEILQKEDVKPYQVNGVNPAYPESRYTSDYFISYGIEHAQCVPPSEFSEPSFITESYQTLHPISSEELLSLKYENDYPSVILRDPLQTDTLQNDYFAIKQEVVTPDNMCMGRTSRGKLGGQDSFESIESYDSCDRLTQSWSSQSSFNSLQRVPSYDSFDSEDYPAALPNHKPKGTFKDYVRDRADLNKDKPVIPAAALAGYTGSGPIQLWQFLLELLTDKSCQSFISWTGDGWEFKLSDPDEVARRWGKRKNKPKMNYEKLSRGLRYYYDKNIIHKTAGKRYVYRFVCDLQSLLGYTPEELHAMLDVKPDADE
Description: ETS1 binding intensity (PBM fluorescence), ETS1 alone (arbitrary fluorescence units); higher = stronger binding. As to conditions: ETS1 concentration 1 nM; RUNX1 concentration 0 nM. An outline of the steps:
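Full-length recombinant human ETS1 (1 nM, no RUNX1) was incubated, per standard PBM protocols, on double-stranded Agilent 4 × 180k arrays of 36-bp genomic probes whose RUNX1 partner site was mutated. Bound ETS1 was detected with anti-ETS1 antibody (Cell Signaling Technology 14069) and Alexa488-conjugated secondary antibody, then scanned on a GenePix 4400A. Binding level is spot fluorescence intensity, summarised over replicate spots (four printed per sequence) and not normalised.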
AGGGTGGCGGCAGAGCCATGGACTTCCGGTCCCTGC returned an ETS1 binding intensity of 14000.

The sequence AGTGCTGTTTCTGGTGAGGGCCCTCTTCCTGGCTTG registered an ETS1 binding intensity of 482.

CACCTCAGCTTCCTGTGTAGCTGGGACCCCAGGCAT gave an ETS1 binding intensity of 9920.

The sequence GAAAAGCAGCGGATTCCCTTTGAGCCGGAACAGGAG gave an ETS1 binding intensity of 385.

On to GAGAAGGCAACCCCGAAAAGGAGGCGGAAACGCCTC, for which the ETS1 binding intensity was found to be 606.

For CCCACTTCCTGTCCCTGCATGCTCTGGGGCAGGCAG, the ETS1 binding intensity is 31100.

As for AGGGGCTTCTGGGAACCGGCCGGAACCGGCTGTGGA, the ETS1 binding intensity came to 347.

GTTTTGTTATCCGCCCGCACCTAGAGGCCGCGAGGC displayed an ETS1 binding intensity of 961.

GGGGTGGGGACACCGTGGAGGCCCGGAAATGGTGAC showed an ETS1 binding intensity of 2440.

With GGGGACGGCCCCTCAGCTCCCGGACGCCACGGCCAG, the ETS1 binding intensity was determined as 325.

In turn, GGCTAGCATCCGCTTCCCAGAGCCCCTCAGCCGGGG yielded an ETS1 binding intensity of 6470.

Turning to CAGGGGGCGGAACGTAAAACGCCTTGTAGCCGACGC, the ETS1 binding intensity stood at 527.

In turn, AGTTTTCCGTCGGGCTCCCAGTGACGCCGAAGAGGT displayed an ETS1 binding intensity of 2580.

In turn, CTTAGCGGAAGAGGCGTGACCCAGGCGTACCCCAGG yielded an ETS1 binding intensity of 1380.

For CTGCAACCTTAAACCAGCTCCCAGGGCCAGGAAGGT, the ETS1 binding intensity came to 349.

As to CTTTCGCTTCCTTTCCCCGCCTCTTAGTCCCGAAGA, the ETS1 binding intensity was 2880.

With CTTGTGCCTACATCCTGTAGCTGTGATTTAGGGACG, the ETS1 binding intensity turned out to be 6270.

In turn, ACTCAAAAAGCACCTCCCCCTCAGGGAGGAAGGAGG returned an ETS1 binding intensity of 368.

The sequence CGCCTCGCCTCTTTCCGCCAGCGCCCTCAGGACCCG came in with an ETS1 binding intensity of 830.

The sequence TGGCTTGTTTCCGGTTCCTCAGTGGCGCCGTTCTCG yielded an ETS1 binding intensity of 21100.

Regarding GACCTTCACCTACAAGAACCACTTCCTCTCAGTAAA, the ETS1 binding intensity turned out to be 2720.

The sequence CCAGCAAAGGAAGCTTGGTCAACGACAGCAGCCTGT returned an ETS1 binding intensity of 461.

Sequence ACACCGGAAGCCCAACAGCATGCCGAGTAAGCACCC gave an ETS1 binding intensity of 7470.

The sequence GGCCAGGCAGGAAGTCCCGCGCCAAAAGCGGCCGTC gave an ETS1 binding intensity of 4900.

As to GAACCCCAGAAATCGCGAGCCGTTTCCTTTCTCTTC, the ETS1 binding intensity was 731.

For CTGGCCAGCGCCCGCCACCACTTCCTCCTCCCCATG, the ETS1 binding intensity was 1300.

GTCGTGGAGGTCGCGAGGGAGCCGGAAAGATGGTGG: the ETS1 binding intensity was found to be 408.

With GCCGAGCCAGGGGTTTCGCATCCGCACTTTCGCCAC, the ETS1 binding intensity was 595.

With CATTTCTGTTGGGGTTGGCAGCGTTTCCTTCCACGG, the ETS1 binding intensity was determined as 454.

Take GGGAAGGACTACGGCACAAGGGACTTCCGGCTCTTG: the ETS1 binding intensity amounted to 6480.

Consider TCCCCACACTTCCGGCCCCGCGCGCACAGCCGCACC, for which the ETS1 binding intensity turned out to be 25400.

CTTACTATATTAACGCCGGTACACATCCGCCCGACA yielded an ETS1 binding intensity of 1800.

Turning to CTGAGGCGCGCCGGAAGGGCTAGCAGTCCCAGCATA, the ETS1 binding intensity turned out to be 1100.

Regarding CCCAGGGCAGGAAGGGCCAAACGGCTACTGCCACTG, the ETS1 binding intensity was found to be 731.

For the sequence CAAGAGGAACCGGAACTTTGGAAACTACATTCTTAT, the ETS1 binding intensity amounted to 1500.

For the sequence ACCCAGGGGACTTCCTGGCTCAGTGCCACGACCCAG, the ETS1 binding intensity was determined as 5860.

Sequence TGGCGTGGATTTTTTTTTTTTTTTCACCCGGAAACC yielded an ETS1 binding intensity of 446.

As to AAGTGGGGTGAAGGAAGCTGTACACCGTGGAGTCAC, the ETS1 binding intensity amounted to 399.

Take CGTCCCTAAATCACAGCTACAGGATGTAGGCACAAG: the ETS1 binding intensity turned out to be 1160.

On to CAAACGATAGCAGGAAAGGCCTGTGACTTGACAGCA, for which the ETS1 binding intensity amounted to 384.

Take GCTGCCACTTCCCTTGCTTATTTCATGTGATTTGGA: the ETS1 binding intensity turned out to be 2600.

With AATACCCTCTGGTGGCCGCCGGAAGTGTGTCGGCGG, the ETS1 binding intensity was determined as 3120.

Regarding TGCGCCGGAAAGCAACGGCAAGGGCCGAAGCCAGCA, the ETS1 binding intensity worked out at 552.

Sequence GAGGGCTGTTGTAGTTAGGACGGCTTCCTGGGTGGG yielded an ETS1 binding intensity of 532.

CTGCCTGCCCCAGAGCATGCAGGGACAGGAAGTGGG yielded an ETS1 binding intensity of 1380.

CCCTCTTCGGGACGAAGAAGGGGGATGTGCTGCTGG: the ETS1 binding intensity came out at 426.

AACAAACCGGATGGGGTTCCCACCTGCAATCTTGTC showed an ETS1 binding intensity of 3820.

Take AAGATGGCGGGCGCTGAGCCGCCCACTTCCCCCTCC: the ETS1 binding intensity worked out at 321.

Consider GATCTTCCTGCAACCCCCCGAGACAACGACCGAACA, for which the ETS1 binding intensity stood at 3030.

On to TCGGGTGCGCAGTTCGGGGGCGGCTCGGAAACCCCA, for which the ETS1 binding intensity worked out at 439.

The sequence GAAGCGATATTTCCTCCTGGGGTTGAACGCCCCGTG returned an ETS1 binding intensity of 1730.

With TGGTGACCCCGCCGCTCCAGCGTCGCGCTTCCGGGC, the ETS1 binding intensity came out at 955.

Regarding GGCAAGCTGGTGGATAAGATTCTCAGGAAGGAAGAC, the ETS1 binding intensity amounted to 440.

Sequence GCTCATTTCCTGGCCGCTCCTGGGCTTCGAGGTGAG showed an ETS1 binding intensity of 8460.

Take GGCCAAGGAAGCGGCCCCCTAAATCCGCTCCAGGGA: the ETS1 binding intensity turned out to be 458 ± 44.

CAGTCAAGAGGAAATTATAAAGCACTGCCTCTTTGA came in with an ETS1 binding intensity of 709.

Turning to TTCTTCCGGCAACTGCTGCTGAGGCTTCGGTGGCGG, the ETS1 binding intensity worked out at 8240.

Consider TGCGGAAGAGGAACACGTGACGGTCGTGGCCCTTCT, for which the ETS1 binding intensity is 374.

For the sequence CTCGACAGGGCGCGGAAGGGAGCGGAGGGCGCGCCC, the ETS1 binding intensity turned out to be 335.

With GAGAGGAGGATGTTGTCAGATACCTACAAATGAGAA, the ETS1 binding intensity came out at 985.

In turn, GCGGCCTACGGGAGGACGGTGGTGCTTTCCGGCCTA registered an ETS1 binding intensity of 476.

As for CCTGCTGCTTCCGCCCGGAGTTGTTGAGGGCTCCAG, the ETS1 binding intensity stood at 8210.

Regarding TGTAGAGGAGGTGGATTCCATCACGGAAGGCCGAAG, the ETS1 binding intensity was determined as 411.
